According to the supplement of paper PMC4604168 (melanoma cell lines):
The list shows a part of the results. Repeats are few or missing, and single values can be far off.

Assays:
Experiment in all cases: cell count relative to DMSO control; melanoma cells; higher = more viable cells
Conditions in all cases: library dose: low library concentration; 72 h
[1] = tested on: COLO792
[2] = tested on: COLO800
[3] = tested on: COLO829
[4] = tested on: G361
[5] = tested on: IPC-298
[6] = tested on: IST-MEL1
[7] = tested on: LB2518-MEL
[8] = tested on: LOXIMVI
[9] = tested on: MEL-HO
[10] = tested on: MZ2-MEL
[11] = tested on: MeWo
[12] = tested on: RPMI7951
[13] = tested on: RVH-421
[14] = tested on: SkMel28
[15] = tested on: SkMel30
[16] = tested on: SkMel5
[17] = tested on: UACC257
[18] = tested on: UACC62
[19] = tested on: WM115
[20] = tested on: WM1716
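Also: cell number obtained by counting DAPI-stained nuclei in high-throughput microscope images with image analysis software, screen run in 1,536-well plates.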

| SMILES | cell count [1] | cell count [2] | cell count [3] | cell count [4] | cell count [5] | cell count [6] | cell count [7] | cell count [8] | cell count [9] | cell count [10] | cell count [11] | cell count [12] | cell count [13] | cell count [14] | cell count [15] | cell count [16] | cell count [17] | cell count [18] | cell count [19] | cell count [20] |
| --- | --- | --- | --- | --- | --- | --- | --- | --- | --- | --- | --- | --- | --- | --- | --- | --- | --- | --- | --- | --- |
| COc1cc2ncnc(Nc3ccc(Oc4ccccc4)cc3)c2cc1OC + Oc1nc(-c2ccc(C(F)(F)F)cc2)nc2c1CSCC2 [XAV939] (first compound 2 µM, partner dose 2 µM) | 77% | 128% | 115% | 91.4% | 92.5% | 107% | 122% | 106% | 101% | 85.5% | 93.6% | 112% | 115% | 84.4% | 113% | 98.2% | 74.6% | 106% | 91.9% | 75.7% |
| O=S(=O)(c1ccccc1)N(CC(F)(F)F)c1ccc(C(O)(C(F)(F)F)C(F)(F)F)cc1 + Cc1cc([N+](=O)[O-])ccc1NS(=O)(=O)c1cc(Cl)ccc1Cl [FH535] (first compound 1.4 µM, partner dose 1 µM) | 91.2% | 93.3% | 75.2% | 80.6% | 84.1% | 102% | 83.9% | 107% | 86.1% | 96.5% | 91.2% | 110% | 94.6% | 84.7% | 77.5% | 87.8% | 98.2% | 76% | 89.9% | 110% |
| COc1ccc(-c2ccc3c(N4CCOCC4)nc(N4C[C@@H](C)O[C@@H](C)C4)nc3n2)cc1CO + Cn1cc(/C=C2\C(=O)Nc3cccnc32)c2ccccc21 [GW441756] (first compound 0.02 µM, partner dose 0.4 µM) | 97.3% | 123% | 71.7% | 94.6% | 93.1% | 95.3% |  | 103% | 107% |  | 84.9% | 102% | 96.1% | 80% | 88.9% | 82.3% | 67.7% | 78.6% | 91.7% | 104% |
| COc1cc(N2CCC(N3CCN(C)CC3)CC2)ccc1Nc1ncc(Cl)c(Nc2ccccc2S(=O)(=O)C(C)C)n1 + CC(C)CCN1c2nc(Nc3cc(F)c(O)c(F)c3)ncc2N(C)C(=O)C1C [BID1870] (first compound 0.08 µM, partner dose 0.2 µM) | 99.1% | 62% | 105% | 95.6% | 107% | 106% | 113% | 82% | 80.1% |  | 83.9% | 76.5% | 104% | 78.9% | 77% | 75.1% | 65.3% | 81.7% | 89% | 76% |
| O=C(O)C(=O)Nc1sc2c(c1C(=O)O)CCNC2 + c1cc(-c2cnn3cc(-c4ccc(OCCN5CCCCC5)cc4)cnc23)ccn1 [Dorsomorphin] (first compound 1.66667 µM, partner dose 0.4 µM) | 87.3% | 126% | 87.7% | 96.5% | 101% | 101% | 106% | 100% | 86.1% |  | 107% | 97% | 112% | 88.3% | 69.6% | 93.7% | 92.2% | 101% | 98.1% | 114% |
| c1cc(-c2cnn3cc(-c4ccc(OCCN5CCCCC5)cc4)cnc23)ccn1 [Dorsomorphin] + CC(C)CCN1c2nc(Nc3cc(F)c(O)c(F)c3)ncc2N(C)C(=O)C1C [BID1870] (first compound 0.4 µM, partner dose 0.2 µM) | 93.2% | 104% | 111% | 91.4% | 101% | 98.6% | 108% | 80.9% | 110% | 95.1% | 87.8% | 107% | 93.9% | 99.2% | 96.7% | 102% | 82.6% | 94% | 91.1% | 91.2% |
| COC(=O)c1sccc1S(=O)(=O)Nc1ccc(Nc2ccccc2)cc1OC + Oc1cc(-c2nc(-c3ccccc3)[nH]c2-c2ccncc2)ccc1Cl [L779450] (first compound 1 µM, partner dose 0.2 µM) | 116% | 61% | 124% | 86% | 78.1% | 102% |  | 144% | 102% |  | 90.7% | 101% | 96.2% | 88.2% | 120% | 96.2% | 78.8% | 66% | 83.9% | 103% |
| CCN(CC)CCCCNc1ncc2cc(-c3cc(OC)cc(OC)c3)c(NC(=O)NC(C)(C)C)nc2n1 + Cn1cc(/C=C2\C(=O)Nc3cccnc32)c2ccccc21 [GW441756] (first compound 0.1 µM, partner dose 0.4 µM) | 82.3% | 77.4% | 104% | 97% | 98.5% | 110% | 97% | 93.2% | 109% |  | 106% | 94.6% | 112% | 83.8% | 98.5% | 84.5% | 83.8% | 86.9% | 95.4% | 101% |
| COc1ccc2c(c1)CCC1C2CCC2(C)C(NCCCCCCN3C(=O)C=CC3=O)CCC12 (stereo unspecified) + CCN(CC)CCCCNc1ncc2cc(-c3cc(OC)cc(OC)c3)c(NC(=O)NC(C)(C)C)nc2n1 [PD173074] (first compound 0.4 µM, partner dose 0.1 µM) | 96% | 44.7% | 109% | 79.2% | 94.5% | 101% | 89.3% | 65.6% | 86.3% |  | 95.1% | 71.5% | 97.7% | 91.5% | 98.5% | 96% | 98.4% | 108% | 96.7% | 82.5% |
| O=C(O)C(=O)Nc1sc2c(c1C(=O)O)CCNC2 + COc1cc(N2CCC(N3CCN(C)CC3)CC2)ccc1Nc1ncc(Cl)c(Nc2ccccc2S(=O)(=O)C(C)C)n1 [NVP-TAE684] (first compound 1.66667 µM, partner dose 0.08 µM) | 104% | 108% | 85.5% | 101% | 93.8% | 98.2% |  | 127% | 99.6% |  | 92.3% | 86.4% | 110% | 96.8% | 94.1% | 88.4% | 86.1% | 90.3% | 97.9% | 95.4% |
| O=C(O)C(=O)Nc1sc2c(c1C(=O)O)CCNC2 + CCCCCCCCCCCC1=C(O)C(=O)C=C(O)C1=O [Embelin] (first compound 1.66667 µM, partner dose 1.2 µM) | 116% | 111% | 86.8% | 105% | 103% | 110% | 106% | 124% | 119% |  | 105% | 115% | 93.3% | 99.9% | 125% | 114% | 91.4% | 92.9% | 88.1% | 98.4% |
| N#Cc1c(O)c2c(-c3ccc(-c4ccccc4O)cc3)csc2[nH]c1=O + CCCCCCCCCCCC1=C(O)C(=O)C=C(O)C1=O [Embelin] (first compound 2 µM, partner dose 1.2 µM) | 109% | 115% | 76.4% | 117% | 108% | 101% | 118% | 135% | 99.1% | 106% | 108% | 117% | 96.2% | 116% | 126% | 98.8% | 128% | 114% | 101% | 127% |
| COc1cc(N2CCC(N3CCN(C)CC3)CC2)ccc1Nc1ncc(Cl)c(Nc2ccccc2S(=O)(=O)C(C)C)n1 + Cn1cc(/C=C2\C(=O)Nc3cccnc32)c2ccccc21 [GW441756] (first compound 0.08 µM, partner dose 0.4 µM) | 89.3% | 116% | 117% | 89.5% | 94.8% | 99.5% | 119% | 91.1% | 83.5% | 94.3% | 95.5% | 95.2% | 96.7% | 87.8% | 100% | 75.4% | 84.7% | 89.5% | 95.9% | 106% |
| CCN(CC)CCCCNc1ncc2cc(-c3cc(OC)cc(OC)c3)c(NC(=O)NC(C)(C)C)nc2n1 + Oc1cc(-c2nc(-c3ccccc3)[nH]c2-c2ccncc2)ccc1Cl [L779450] (first compound 0.1 µM, partner dose 0.2 µM) | 85.8% | 82.2% | 81.3% | 96.3% | 76.4% | 92.9% |  | 111% | 84.7% |  | 98.5% | 114% | 79% | 84.7% | 106% | 101% | 68.2% | 67.8% | 81.8% | 111% |
| COc1ccc(-c2ccc3c(N4CCOCC4)nc(N4C[C@@H](C)O[C@@H](C)C4)nc3n2)cc1CO + Cc1cc([N+](=O)[O-])ccc1NS(=O)(=O)c1cc(Cl)ccc1Cl [FH535] (first compound 0.02 µM, partner dose 1 µM) | 79.6% | 104% | 85% | 98.1% | 90.4% | 72.4% | 105% | 84.8% | 73.3% |  | 91.2% | 104% | 99.9% | 87.7% | 72.2% | 84.6% | 88.7% | 89.7% | 95.8% | 91.3% |
